{"source": "PubChem BioAssay AID651820", "about": "(National Center for Advancing Translational Sciences (NCATS), 2012)", "note": "About 12,000 (3.5%) of roughly 340,000 compounds were called active. Inconclusive results, whose numbers are uncertain, are shown with a selection of clear calls. Calls come from the whole dose curve; as a rule, active = well fitted inhibition curve with a large enough effect; inconclusive = small, poorly fitted or top-dose-only effect, or another doubt; inactive = no such curve, though single readings can be large or run the other way. Potencies of inconclusive entries are left out as doubtful fits. % is set by controls: 0 for no effect and ±100 for the full control effect; potency is the fitted concentration of half-maximal effect; tags give direction and shape of the fitted curve."}
{"test": "qHTS Assay for Inhibitors of Hepatitis C Virus (HCV)", "conditions": "Huh7.5.1 HCVcc-Cre (HCVcc is cell-culture hepatitis C virus) infection, luciferase reporter, 44 h; activity change, negative = inhibition: at 41.8 µM (top of the series) unless noted", "how_it_was_run": "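Luciferase read-out (15 sec integration) after a 15 min room-temperature substrate step quantifies HCVcc-Cre infection. Cells, 1,000 per well, had compound added 4 h post-plating, then virus at ~0.5 moi, and were cultured 44 h.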"}
{"molecule": "O=C(Nc1ccc(S(=O)(=O)N2CCOCC2)cc1)C1CCN(S(=O)(=O)c2ccccc2)CC1", "Potency": "inconclusive [inhibitor, partial curve]"}
{"molecule": "CSc1ccc(OC2CCCCC2NS(=O)(=O)c2ccccc2)cc1", "note": "(stereo not given)", "Potency": "inconclusive [inhibitor, single point]"}
{"molecule": "Cc1ccc(S(=O)(=O)Nc2cccc(C(=O)NCC(c3ccco3)N3CCCCC3)c2)cc1F", "note": "(stereo not given)", "Potency": "inconclusive [inhibitor, partial curve]"}
{"molecule": "Cn1c(CCC(N)=O)nnc1SCC(=O)Nc1cc(S(=O)(=O)N2CCCC2)ccc1Cl", "activity change, negative = inhibition": "inactive: 16.3%"}
{"molecule": "COc1cccc(CN(C(=O)COc2ccc(Cl)cc2)C2CCS(=O)(=O)C2)c1", "note": "(stereo not given)", "activity change, negative = inhibition": "inactive: -0.0158%"}
{"molecule": "CC(=O)Nc1sc(C)c(C)c1C(=O)OCC(=O)N(CCC#N)c1cc(C)cc(C)c1", "Potency": "inconclusive [inhibitor, single point]"}
{"molecule": "Cc1cc(C)cc(NC(=O)CCc2c(C)nn(-c3ccc(N4CCCCC4)nn3)c2C)c1", "Potency": "inconclusive [inhibitor, single point]"}
{"molecule": "Cc1cccc(Sc2c(C=O)c3ccccc3n2C)c1", "Potency": "inconclusive [inhibitor, single point]"}
{"molecule": "COc1ccc([N+](=O)[O-])cc1NC(=O)C(C)N(C)Cc1ccc(Br)cc1", "note": "(stereo not given)", "Potency": "inconclusive [inhibitor, full curve]"}
{"molecule": "O=C(NCCCN1CCc2ccccc2C1)Nc1ccc(Br)cc1", "activity change, negative = inhibition": "inactive: -27.6%"}
{"molecule": "FC(F)(F)COc1nc(N2CCOCC2)nc(N(c2ccccc2)c2ccccc2)n1", "Potency": "inconclusive [inhibitor, partial curve]"}
{"molecule": "CC(C)C(C)(C#N)NC(=O)CSc1nnc(C(F)(F)F)n1C", "note": "(stereo not given)", "Potency": "inconclusive [inhibitor, single point]"}
{"molecule": "CCNC(=O)OCCC12CC3CC(CC(C3)C1)C2", "activity change, negative = inhibition": "inactive: 31.9%"}
{"molecule": "O=C(NCCC1=CCCCC1)c1ccc(Cl)c(S(=O)(=O)N2CCOCC2)c1", "Potency": "inconclusive [inhibitor, partial curve]"}
{"molecule": "CC(C)(CO)NCc1cccs1", "activity change, negative = inhibition": "inactive: 9.4%"}
{"molecule": "Oc1cccc(/C=N/N=C/c2cccc(O)c2O)c1O", "activity change, negative = inhibition": "inactive: -7.29%"}
{"molecule": "Cc1ccc(-c2nnc(NCc3nc4ccccc4[nH]3)c3ccccc23)cc1S(=O)(=O)N(C)C", "Potency": "inconclusive [inhibitor, partial curve]"}
{"molecule": "CCCC(C)c1nnc(NC(=O)C2CC(=O)N(CCc3ccc(F)cc3)C2)s1", "note": "(stereo not given)", "activity change, negative = inhibition": "inactive: 17.7%"}
{"molecule": "CN(CC(=O)Nc1cccc(S(=O)(=O)NC2=NCCCCC2)c1)Cc1ccc(C(C)(C)C)cc1", "Potency": "inconclusive [inhibitor, single point]"}
{"molecule": "O=C(CNC(=O)c1ccccc1Br)N/N=C/c1cc(Br)ccc1O", "Potency": "inconclusive [inhibitor, partial curve]"}
{"molecule": "Cc1cccc([C@@H]2[C@@H]3C(=O)N(Cc4ccccc4)C(=O)[C@@H]3[C@]3(Cc4ccc(Cl)cc4)C(=O)N(c4cccc(Br)c4)C(=O)N23)c1", "activity change, negative = inhibition": "inactive: 3.21%"}
{"molecule": "NC(=S)Cc1nc(-c2ccc(Cl)cc2)cs1", "Potency": "active: 11.2 µM"}
{"molecule": "CC(C)COP(=O)(c1ccc(N(C)C)cc1)C(Nc1ccccc1)c1cccnc1", "note": "(stereo not given)", "Potency": "inconclusive [inhibitor, single point]"}
{"molecule": "Cc1coc2c(C)c3oc(=O)c(CCC(=O)NCc4ccccn4)c(C)c3cc12", "Potency": "inconclusive [inhibitor, full curve]"}
{"molecule": "COc1ccc(CCNC(=O)COc2ccc(S(=O)(=O)N3CCCC3)cc2)cc1", "activity change, negative = inhibition": "inactive: 2.48%"}
{"molecule": "CCC(SC1=N/C(=C/c2ccccc2OC)C(=O)N1c1ccccc1)C(=O)Nc1cc(C)on1", "note": "(stereo not given)", "Potency": "inconclusive [inhibitor, partial curve, poor fit]"}
{"molecule": "COc1cccc(CN=c2c([N+](=O)[O-])nn(-c3ccccc3C)n2O)c1", "activity change, negative = inhibition": "inactive: 17.5%"}
{"molecule": "CC(C)N1C/C(=C/c2cccnc2)C(=O)/C(=C/c2cccnc2)C1", "Potency": "inconclusive [inhibitor, single point]"}
{"molecule": "O=C(Nc1cc([N+](=O)[O-])ccc1N1CCCC1)c1cccs1", "Potency": "inconclusive [inhibitor, partial curve]"}
{"molecule": "Cc1ccc(-c2nc3ccc(C(=O)O)cc3nc2-c2ccc(C)cc2)cc1", "activity change, negative = inhibition": "inactive: 23.6%"}
{"molecule": "COc1ccc2c(c1)O[C@@H](c1cccc(C(F)(F)F)c1)[C@H](OC(=O)Nc1ccc(OC(F)F)cc1)C2=O", "Potency": "inconclusive [inhibitor, single point]"}
{"molecule": "CC(C)=CCC/C(C)=C/CNC(=O)C[C@H]1C[C@H](C(=O)N(C(C)C)C(C)C)[C@@]2(C)c3[nH]c4ccc(Cl)cc4c3CCN2C1=O", "activity change, negative = inhibition": "inactive: -0.3%"}
{"molecule": "CC(C)(C)c1ccccc1O", "activity change, negative = inhibition": "inactive: 9.16%"}
{"molecule": "O=C(c1ccc(CS(=O)(=O)c2ccc(Br)cc2)o1)N1CCCC1", "Potency": "inconclusive [inhibitor, single point]"}
{"molecule": "COc1ccc(CCNC(=O)CN2C(=O)NC(c3ccccc3)(c3ccccc3)C2=O)cc1", "Potency": "inconclusive [inhibitor, partial curve]"}
{"molecule": "COCCCNC(=S)N1CCN(C(=O)C(=O)Nc2ccc(C(=O)OC)cc2)CC1", "activity change, negative = inhibition": "inactive: -9.46%"}
{"molecule": "O=S(Cc1ccc(Br)cc1)Cc1nnc(SCc2c(Cl)cccc2Cl)n1-c1ccccc1", "note": "(stereo not given)", "Potency": "inconclusive [inhibitor, single point]"}
{"molecule": "CCOC(=O)c1c(-c2cccc([N+](=O)[O-])c2)cn2ccccc12", "Potency": "inconclusive [inhibitor, partial curve]"}
{"molecule": "CCc1ccc2[nH]c(=O)c(CN(CCN(CC)CC)C(=S)NCc3ccco3)cc2c1", "Potency": "inconclusive [inhibitor, single point]"}
{"molecule": "O=C(c1ccc(N2CCCC2=O)cc1)N1CCN(c2ccccc2O)CC1", "Potency": "inconclusive [inhibitor, single point]"}
{"molecule": "CC(C)c1nc(Cl)c(C#N)c2c1CSC(C)(C)C2", "Potency": "inconclusive [inhibitor, partial curve]"}
{"molecule": "CCN(CC)S(=O)(=O)c1cccc(C(=O)Nc2ccc3c(c2)OCO3)c1", "Potency": "inconclusive [inhibitor, single point]"}
{"molecule": "O=C(COC(=O)CNS(=O)(=O)c1c(F)cccc1F)NC(=O)NC1CCCCC1", "activity change, negative = inhibition": "inactive: -3.81%"}
{"molecule": "CCOc1ccc(CN2CCN(Cc3ccc4cc(F)ccc4n3)CC2CCO)cc1", "note": "(stereo not given)", "Potency": "inconclusive [inhibitor, single point]"}
{"molecule": "Cc1ccc(CS(=O)Cc2ccc(C(=O)NCc3ccc4c(c3)OCO4)o2)cc1", "note": "(stereo not given)", "activity change, negative = inhibition": "inactive: -2.1%"}
{"molecule": "CCn1c(=O)c2cc(C(=O)Nc3cccc(C(C)=O)c3)sc2c2ccccc21", "Potency": "inconclusive [inhibitor, partial curve, poor fit]"}
{"molecule": "C=CCn1c(C)cc(C(=O)COC(=O)c2ccc3c(c2)NC(=O)CS3)c1C", "Potency": "inconclusive [inhibitor, full curve, poor fit]"}
{"molecule": "C[C@H](CO)N1C[C@H](C)[C@@H](CN(C)C(=O)Nc2ccc(C(F)(F)F)cc2)Oc2ccc(NC(=O)Nc3ccc4c(c3)OCO4)cc2C1=O", "Potency": "inconclusive [inhibitor, full curve, poor fit]"}
{"molecule": "CC1(C)[C@H]2CC=C(CN3CCC(N4CCC(C(=O)N5CCCC5)CC4)CC3)[C@@H]1C2", "Potency": "active: 31.6 µM"}
{"molecule": "COC(=O)c1ccc(N2CCN(C)CC2)c(NC(=O)COc2ccc(OC)cc2)c1", "Potency": "inconclusive [inhibitor, single point]"}
{"molecule": "O=C(Nc1ccc(NC(=O)c2ccco2)c(Cl)c1)c1cccc([N+](=O)[O-])c1", "Potency": "inconclusive [inhibitor, full curve, poor fit]"}
{"molecule": "CC[C@]12c3[nH]c4cc(-c5ccco5)ccc4c3CCN1C(=O)[C@@H](CC(=O)NCC13CC4CC(CC(C4)C1)C3)C[C@@H]2C(=O)N1CCN(C(=O)C2CC2)CC1", "Potency": "inconclusive [inhibitor, partial curve]"}
{"molecule": "O=C(COC(=O)c1c2c(nc3ccccc13)/C(=C/c1cccc([N+](=O)[O-])c1)CCC2)NC1CCS(=O)(=O)C1", "note": "(stereo not given)", "Potency": "active: 3.55 µM"}
{"molecule": "COc1ccc(C=O)cc1OS(=O)(=O)c1ccc(NC(C)=O)cc1", "Potency": "inconclusive [inhibitor, single point]"}
{"molecule": "O=C(O)c1occc1CSc1ccccc1", "activity change, negative = inhibition": "inactive: 2.64%"}
{"molecule": "COc1ccc2c(c1)C(c1ccc(N(CCCl)CCCl)cc1)=NCC2", "Potency": "inconclusive [inhibitor, single point]"}
{"molecule": "O=C(Nc1cccc(-c2nc3ncccc3o2)c1)c1sc2cc(Cl)ccc2c1Cl", "Potency": "active: 8.91 µM"}
{"molecule": "Cc1sc(NC(=O)/C=C/c2ccc3c(c2)OCO3)nc1-c1ccccc1", "Potency": "inconclusive [inhibitor, full curve]"}
{"molecule": "N#Cc1cccc(C#N)c1Oc1ccc(S(=O)(=O)Nc2ccc(Cl)cc2)cc1", "Potency": "inconclusive [inhibitor, single point]"}
{"molecule": "C[C@H]1COC(=O)[C@@H](Cc2ccc(F)cc2)C/C=C\\C[C@@H](CC(=O)NCCO)C(=O)N1", "Potency": "active: 3.55 µM"}
{"molecule": "CN(CC1CCCO1)S(=O)(=O)c1ccc(C(=O)Nc2nc(-c3ccccn3)cs2)cc1", "note": "(stereo not given)", "Potency": "active: 4.47 µM"}
{"molecule": "Clc1ccc(-c2ccnc(-n3cccc3)n2)s1", "activity change, negative = inhibition": "inactive: -22.5%"}
{"molecule": "Clc1cccc(Cl)c1/C=C/c1ccn[nH]1", "Potency": "inconclusive [inhibitor, single point]"}
{"molecule": "CCCCCOc1ccc(C(=O)CCC(=O)NC(C)c2ccc(S(N)(=O)=O)cc2)cc1", "note": "(stereo not given)", "Potency": "inconclusive [inhibitor, single point]"}
{"molecule": "CC(=O)NCCn1c(SCc2ccc(C)cc2C)nc2ccccc2c1=O", "Potency": "inconclusive [inhibitor, partial curve, poor fit]"}
